Values joined by “and” are separate entries in the source; they are usually repeats but may differ in a detail not shown here. Equal entries are not always repeated. About 1,200 (2.5%) of roughly 48,000 compounds were called active. Not shown: some 2% with an inconclusive outcome.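 The calls were made as follows: active = activation of at least 60% and not above a set upper limit (about 1 call in 100 departs from these limits); inconclusive = activation of 40% to 60%, or above that upper limit; inactive = activation under 40%.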 Some of the results follow. A structure can be active in one record and inactive in another.
The compounds below were run against Probable G-protein coupled receptor 32 (Homo sapiens) (UniProt O75388) (assay: qHTS for Agonists of Human Resolvin D1 Receptor DRV1). Conditions: CHO-K1 GPR32 beta-arrestin PathHunter luminescence, 90 min; at 76.9 µM; stronger effect = higher value; zero percent set by DMSO-only wells.
Procedure, shortened: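 GPR32 activation in stably transfected CHO-K1 cells, detected as beta-arrestin recruitment by enzyme-fragment complementation. Compound exposure: 90 min, 37 °C.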
Also: 0% is about no effect.

UniProt O75388, sequence (O75388 whole entry, looked up, the tested form may be a part): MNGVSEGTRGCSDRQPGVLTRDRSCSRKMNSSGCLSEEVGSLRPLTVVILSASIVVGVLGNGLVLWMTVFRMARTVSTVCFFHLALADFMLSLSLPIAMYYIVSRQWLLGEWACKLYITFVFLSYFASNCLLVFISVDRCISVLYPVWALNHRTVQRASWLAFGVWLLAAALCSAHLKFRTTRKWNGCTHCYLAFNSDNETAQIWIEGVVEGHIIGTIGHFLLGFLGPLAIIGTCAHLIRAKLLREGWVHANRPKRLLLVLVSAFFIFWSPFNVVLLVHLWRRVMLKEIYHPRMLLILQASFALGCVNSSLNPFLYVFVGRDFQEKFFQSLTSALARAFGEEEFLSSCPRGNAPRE

activation, inactive:
O=C(Nc1nnc(S(=O)(=O)N2CCCc3ccccc32)s1)c1cccc(F)c1 45.3%
Fc1ccc(-n2ncc3c(N4CCC(Cc5ccccc5)CC4)ncnc32)cc1 -6.38%
CCOc1ccccc1CNC(=O)c1ccc(NC(=O)N2CCSc3ncccc32)cc1 4.37%
COc1ccc(CNC(=O)CCNS(=O)(=O)c2cccc3nsnc23)cc1 8.01%
COc1ccc2c(Sc3ccccc3)c(C(=O)NCCCN3CCCCC3)[nH]c2c1 -15.6%
COc1ccc(/C=C/C(=O)Nc2nc3n(n2)C(c2ccccc2)C=C(c2ccc(Cl)cc2)N3)cc1 (stereo not drawn) -10.3%
COc1ccc(OC)c(CNC(=O)Cn2nc(C)c3nn(-c4ccc(Cl)cc4)c(C)c3c2=O)c1 -16.2%
COc1ccc2oc(=O)c(-c3cn4c(n3)sc3cc(OC)ccc34)cc2c1 -12.3%
CCc1ccccc1NC(=O)Nc1nnc(N(C)Cc2ccccc2)s1 -20.8%
COc1ccc(NC(=O)c2cc(S(=O)(=O)N3CCCCCC3)cn2C)cc1Cl -4.47%
Clc1ccc(N2CCN(c3ncnc4c3cnn4-c3ccccc3)CC2)cc1Cl 4.04%
Cc1nc2n(c(=O)c1CCN1CCC(c3noc4cc(F)ccc34)CC1)CCCC2 2.19%
CCc1ccccc1N(C)C(=O)c1cn(-c2cccc(OC)c2)c(=O)c2ccccc12 -21.6%
CCc1ccc(NC(=O)Cn2nnc(C(=O)NCc3ccc(C)cc3)c2N)cc1 -1.7%
O=C(Nc1ccc(F)cc1F)C1CCN(S(=O)(=O)c2ccc3[nH]c(=O)ccc3c2)CC1 15.6%
O=C(CCc1nc2cccnc2n1-c1ccccc1)Nc1ccc(Cl)c(Cl)c1 27.9%
CC1(C(=O)NC2CCCCC2)Cc2ccccc2C(=O)N1Cc1ccccc1Cl (stereo not drawn) -14.8%
COc1cc(NC(=O)CCc2nc3cccnc3n2Cc2cccs2)cc(OC)c1OC 5.4%
CCc1ccc(OCc2nc(-c3ccc(OC)c(OC)c3)no2)c(Br)c1 -7.44%
CCOc1ccc(C(=O)NCC(c2ccc3c(c2)OCO3)N2CCOCC2)cc1 (stereo not drawn) -6.11%
CN(C)c1ccc(C2C=C(c3ccccc3)Nc3nnnn32)cc1 (stereo not drawn) -19.6%
CC(=O)c1ccc(N2C(=O)N(Cc3ccccc3C#N)c3ccccc3S2(=O)=O)cc1 -6.48%
COc1cc(-c2noc(-c3ccc(NCc4ccco4)c([N+](=O)[O-])c3)n2)cc(OC)c1OC -25.7%
Cc1c(C(=O)Nc2ccc(F)c(Cl)c2)oc2ccc(S(=O)(=O)N(C)C3CCCCC3)cc12 -13.9%
Cc1ccc(-n2ncc(C(=O)Nc3ccc4c(c3)OCO4)c2C2CCN(C(=O)OC(C)(C)C)CC2)c(C)c1 -43.9%
Cc1cn2c(=O)cc(COc3ccc(NC(=O)c4ccccc4C)cc3)nc2s1 5.57%
CCOC(=O)c1nc(Nc2ccccc2OC)c2ccccc2n1 -3.22%
CCCOc1ccc(-c2nc(N3CCCCC3)c3ccccc3n2)cc1 5.54%
CCCCN(CC)C(=O)c1cc2c(=O)n3ccccc3nc2n1C -9.64%
CCc1nn(CCCC(=O)N2CCN(c3cc(Cl)ccc3C)CC2)c(=O)c2cc3occc3n12 -14.2%
COc1ccc(CC(=O)NC2CC(=O)N(c3cccc(F)c3)C2)cc1OC (stereo not drawn) 2.68%
CCOC(=O)c1c(C)n(S(=O)(=O)c2ccc(C)cc2C)c2ccc(NS(=O)(=O)c3ccc(C)cc3C)cc12 -21%
COc1ccccc1Nc1sc(C(=O)c2ccc3c(c2)OCO3)c(N)c1S(=O)(=O)c1ccccc1 8%
Cc1ccc(C2=Nc3ccccc3N(CC(=O)Nc3ccccc3F)C(=O)C2)cc1C -15.5%
CCCCN1C(=O)c2[nH]nc(-c3ccccc3O)c2C1c1ccc(C(C)(C)C)cc1 (stereo not drawn) 0.574%
O=c1oc2ccccc2cc1-c1nnc(Nc2ccc(Cl)cc2Cl)s1 -0.345%
CCN(CC)CCCNC(=O)Cc1ccc(NC(=O)N2CCCCc3ccccc32)cc1 -24.4%
O=C(Nc1cccc(Cl)c1)c1ccc2nc(CCc3ccccc3)oc2c1 2.6%
CCCn1c2ccccc2c2cnn(CC(=O)NCc3ccccc3Cl)c(=O)c21 34.4%
Cc1nc(-c2ccccc2)sc1-c1ccc(SCC(=O)Nc2cccc(C(F)(F)F)c2)nn1 -5.27%
COc1cccc(C2CC(=O)Nc3cc4c(cc32)OCO4)c1OC(C)C (stereo not drawn) 23.5%
CCC(=O)N1CCc2cc(Br)cc(S(=O)(=O)N3CCC(C(=O)Nc4ccccc4CC)CC3)c21 5.48%
CC(=O)NC1CC(=O)N(c2ccc3c(c2)OCCO3)C1 (stereo not drawn) 0.759%
Cc1ccc(-c2nc3cc(Cl)ccc3o2)cc1NC(=O)c1cc([N+](=O)[O-])ccc1N1CCOCC1 -1.38%
CC(C)Oc1ccc(CNC(=O)C2CCN(c3nc4ccccc4nc3C(F)(F)F)CC2)cc1 6.48%
COc1cc(OC)c(NC(=O)C2CCN(C(=O)c3sc4nc[nH]c(=O)c4c3C)CC2)cc1Cl 0.0329%
COc1ccc(NC(=O)c2cc3nc(-c4ccc(Cl)c(Cl)c4)cc(C(F)(F)F)n3n2)c(OC)c1 -12.4%
CCCNC(=O)c1cnn2c(C)c(Cc3c(C)cc(C)cc3C)c(C)nc12 -2.54%
CCOc1ccccc1NC(=O)N1CCC(n2c(C)nc3cccnc32)CC1 -1.59%
Cc1sc2ncn(CC(=O)Nc3ccc(F)cc3F)c(=O)c2c1S(=O)(=O)N1CCC(C)CC1 0.387%
COc1ccc(C(=O)NC2CC(=O)N(c3ccc4c(c3)OCCO4)C2)cc1 (stereo not drawn) 16%
COc1ccc(CNC(=O)CCc2cn(C)c3ccccc23)cc1 -20.9%
Cc1c(-c2nnc(SCC(=O)Nc3ccccc3F)o2)nnn1-c1ccc(F)cc1 -13.8%
COc1cccc(N2CCN(S(=O)(=O)c3cn(C)c(C)n3)CC2)c1 25.3%
Cc1ccc(CCNC(c2ccc(F)cc2)c2nnc(-c3ccccc3Cl)o2)cc1 (stereo not drawn) -13.2%
CCn1c(C(=O)N2CCC(C(=O)N3CCN(c4cc(C)ccc4C)CC3)CC2)cc2sccc21 -16.7%
CCOc1ccc(CNC(=O)c2cccc(NC(=O)N3CCSc4ncccc43)c2)cc1 -1.73%
CC(=O)N1CCc2cc(S(=O)(=O)NC(CC(C)C)C(=O)Nc3ccc(C(C)C)cc3)ccc21 (stereo not drawn) -7.93%
CC(C)Cn1cc(NC(=O)Nc2cccc(C(F)(F)F)c2)c2ccccc2c1=O -15.4%
CCOC(=O)N1CCc2c(sc3c2c(=O)n(Cc2ccccc2)c(=O)n3Cc2cc(C)ccc2C)C1 -4.18%
Cc1cc(-c2ccc(C)c(S(=O)(=O)N3CCC(C)CC3)c2)on1 -8.22%
CCOC(=O)c1c(C)sc(-c2c(-c3ccc4c(c3)OCCO4)[nH]c3c2c(=O)n(C)c(=O)n3C)c1O -18.5%
CC(=O)N1c2ccc(S(=O)(=O)N3CCCCCC3)cc2CC1C(=O)NC(C)C (stereo not drawn) 8.48%
CC(C)CC(=O)Nc1nc2c(s1)CC(C(C)(C)C)CC2 (stereo not drawn) -9.24%
COC(=O)c1ccc(NC(=O)CN2C(=O)CCc3cc(S(=O)(=O)N4CCCCC4)ccc32)cc1 6.73%
O=C(O)CCn1c(=O)c2cccn2c2cccnc21 -8.26%
Cc1[nH]c(=O)[nH]c(=O)c1S(=O)(=O)N1CCN(c2ccccc2Cl)CC1 0.0159%
COc1ccc(S(=O)(=O)NCC(c2ccco2)N2CCN(c3ccccc3)CC2)cc1OC (stereo not drawn) -28.8%
CCOC(=O)c1cc(-c2ccccc2)n(CCCC(=O)Nc2cccc(C)c2C)c1C -25.3%
N#Cc1ccccc1Cn1c(=O)n(-c2cccc(C(F)(F)F)c2)c(=O)c2sccc21 -14.3%
COc1ccccc1NC(=O)c1sc2nc(C)c(C(=O)Nc3ccc(C)cc3C)c(-c3cccs3)c2c1N -17.2%
CCc1ccc(NC(=O)CC2C(=O)N(c3ccc(Cl)cc3)C(=O)N2Cc2ccco2)cc1 (stereo not drawn) -21%
CCc1ccccc1Nc1nn2c(=O)c3ccc(C(=O)NC(C)c4ccccc4)cc3nc2s1 (stereo not drawn) -22.2%
Cc1ccc(NC(=O)C(=O)NCC(c2cccnc2)N2CCN(c3ccccc3F)CC2)cc1Cl (stereo not drawn) -13.2%
COc1cc2[nH]c(=O)n(CCCC(=O)NCc3ccc(Cl)cc3)c(=O)c2cc1OC 2.01%
Cc1cccc2sc(N(Cc3cccnc3)C(=O)c3cccs3)nc12 -16.3%
CCc1ccc(CN2CCc3nc(Nc4ccccc4)ncc3C2)cc1 -30.2%

activation, active:
Cc1oc2ccc(O)c(CN3CCCCC3)c2c1C(=O)Nc1cccc(C(F)(F)F)c1 106%
Cc1nn(C)c2c1c(C(F)(F)F)cc(=O)n2CC(=O)N1CCCCC1C (stereo not drawn) 79.9%
CCC1Oc2ccc(C)cc2N(CC(=O)NCc2ccc(OC)cc2)C1=O (stereo not drawn) 64.4%
COc1ccc2nc(NC(=O)Nc3ccccc3)sc2c1 101%
COc1ccc(-n2nc3c(N4CCCC(C(=O)NCc5ccc(C)cc5)C4)nnc(C)c3c2C)cc1 (stereo not drawn) 111%

activation, 104% (active) and -3.61% (inactive):
CNCCC(Oc1ccc(C(F)(F)F)cc1)c1ccccc1 (stereo not drawn)
